Consider one molecule from article PMC5243199 (Cancer research, 2016).

For the test, the target named is T1, His-menin (UniProt O00255-2 1-610).
T1 sequence (looked up): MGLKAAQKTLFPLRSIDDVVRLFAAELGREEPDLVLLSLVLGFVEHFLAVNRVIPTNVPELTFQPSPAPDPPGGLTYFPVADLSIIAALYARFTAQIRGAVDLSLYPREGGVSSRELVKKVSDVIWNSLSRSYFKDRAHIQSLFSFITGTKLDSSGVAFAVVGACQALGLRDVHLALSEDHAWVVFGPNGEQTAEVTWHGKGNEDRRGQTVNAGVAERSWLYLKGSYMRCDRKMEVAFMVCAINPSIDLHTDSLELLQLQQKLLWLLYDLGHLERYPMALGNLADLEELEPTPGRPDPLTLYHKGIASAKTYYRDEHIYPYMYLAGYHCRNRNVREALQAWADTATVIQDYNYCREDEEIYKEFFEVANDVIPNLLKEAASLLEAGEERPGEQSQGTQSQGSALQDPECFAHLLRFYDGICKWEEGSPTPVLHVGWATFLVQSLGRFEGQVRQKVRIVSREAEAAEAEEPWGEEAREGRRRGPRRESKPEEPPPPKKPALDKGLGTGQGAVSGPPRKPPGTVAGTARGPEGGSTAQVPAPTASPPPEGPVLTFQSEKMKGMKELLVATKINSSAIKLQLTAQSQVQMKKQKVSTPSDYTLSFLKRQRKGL
Nature of the test: co-IP.

B1: His-Daxx ([…]) (domain or fragment)
chain: not shown
For B1, the binding result was “binds”.
